{"source": "paper PMC12136788", "binders": {"B1": {"name": "chr16:46956602:46956663:-|3pUTR|ENSG00000069345|msi1_unk|FALSE|overlapping (ssRNA)", "RNA": "GGGAGUUCUACAGUCCGACGAUCGUUUGUACAAUUUGUCCUGAAGCUUUGUGUUUGGCUGCACCUGCAUAAGCUGCUACAAAUAGAAUAAAGAAUUUCAUAGCCUGUAUCUAUCAUUUAGAUGCAUGGAAAAAAAUGGGCUUUCAACAGAGGAUUGAGCAUCA"}, "B2": {"name": "chr15:71825291:71825392:-|3pUTR|ENSG00000066933|unk|total|mutant (ssRNA)", "RNA": "GGGAGUUCUACAGUCCGACGAUCUGAAGCUAUUUUUGUUAAUAUUCUGGUUACUGAAGUUUAUUGUAAAUAUGUAUGUACCGCCGGCAUAUUUCUUUUUAACCUUGUGCUUCCCUCCUUCCCAUGGAAUUUCUUCCCACAGAUCAACAGAGGAUUGAGCAUCA"}, "B3": {"name": "chr1:25360731:25360844:+|3pUTR|ENSG00000183726|unk|total|mutant (ssRNA)", "RNA": "GGGAGUUCUACAGUCCGACGAUCUUUUUUACUGCUCACUCCCAACCUUUUGUAAUGCCAUUUUCUAAACUUAUUUCUGAGUGCCGUCUCAGCUUAAAGUUGUGUAAUACUAAAAUCACGAGAACACCUAAACAACAACCAAAACAACAGAGGAUUGAGCAUCA"}, "B4": {"name": "chr11:130144177:130144243:+|3pUTR|ENSG00000084234|msi1_unk|FALSE|overlapping (ssRNA)", "RNA": "GGGAGUUCUACAGUCCGACGAUCAUGAGGGUGUCCGCUGCUGCUUUCCUUCGGAAUCCAGUGCUUCCACAGAGAUUAGCCUGUAGCUUAUAUUUGACAUUCUUCACUGUCUGUUGUUUACCUACCGUAGCUUUUUACCGUUCACAACAGAGGAUUGAGCAUCA"}, "B5": {"name": "chr16:22286016:22286117:+|3pUTR|ENSG00000103319|msi1|total|mutant (ssRNA)", "RNA": "GGGAGUUCUACAGUCCGACGAUCCUGAGCCCAGCCAAGACUUCAGUGUUGACUGCUUUGGAGGCACAAACCCAUGCAAGCGUCCGUUCCAAAGUUCAGUGUGUACCCUUAAAUGAACAAUGAAGCAGGUAAAAUUACCCUUGACAACAGAGGAUUGAGCAUCA"}, "B6": {"name": "chr19:6534681:6534787:+|CDS|ENSG00000125657|unk|total|mutant (ssRNA)", "RNA": "GGGAGUUCUACAGUCCGACGAUCAGAGGACACGAAGGAGCUGGUGGUGGCCAAGGCUGGAGUCUACUAUGUCUUCUUUCAACCCGAGCUGCGGCGCGUGGUGGCCGGCGAGGGCUCAGGCUCCGUUUCACUUGCGCUGCACCUCAACAGAGGAUUGAGCAUCA"}, "B7": {"name": "chr1:110947961:110948399:-|CDS|ENSG00000121931|control|control|control (ssRNA)", "RNA": "GGGAGUUCUACAGUCCGACGAUCAAGUCAUUUCUUCAAUAAAAAUUAUACCGAAGAUAUUUUCCCAGUGACACCACCGGAGUUAGAAGAAACCAUUCGAGAUGAAAAAAUAAGAAGACUUAAGCAGGUGCUGAGAGAGAAAGACAACAGAGGAUUGAGCAUCA"}, "B8": {"name": "chr4:76160418:76160736:-|3pUTR|ENSG00000138760|msi1|total|mutant (ssRNA)", "RNA": "GGGAGUUCUACAGUCCGACGAUCAGUUCCUUCCUCAGUUUCAGUUCUUUCCAGUGUUUUGCCGCUCACUGUCACUCACUGAACCGAGAAACGUGUGCCCUAUACUUCCUGUGACAAUCAUUUUGCUGACAGAAUGAUGGAUGUCAACAGAGGAUUGAGCAUCA"}, "B9": {"name": "chr14:22920524:22921056:-|three_prime_utr|ENSG00000100462|control|control|control (ssRNA)", "RNA": "GGGAGUUCUACAGUCCGACGAUCCAGCACCAGUCUGUUCUGCUAUUCAUAACCCCACAGGCCGCUCAUAUACCAUUGGCCUCUAGCCCUGCGUGCCAAGUGUCCAGAGCCUUGGAAGCAGCUUCAGGUUCUGCUCCUGUAGUACAACAGAGGAUUGAGCAUCA"}, "B10": {"name": "chr9:35750248:35750349:+|CDS|ENSG00000107185|msi1|total|mutant (ssRNA)", "RNA": "GGGAGUUCUACAGUCCGACGAUCGGCCCUGGCCUGGGCCAGUGCCCAAAUCCACUGCCAGUUCCAUGCCAGUGAGAGUCGAGCCGCACUGCCUCCUCCUGACUCCCGUCAGCCAGAUGUCCAGCCCGACAGCCAGACUGUCUUCAACAGAGGAUUGAGCAUCA"}, "B11": {"name": "chr14:100883672:100883793:-|CDS|ENSG00000254656|unk|total|mutant (ssRNA)", "RNA": "GGGAGUUCUACAGUCCGACGAUCUCUAUUCCGGGUCCCUCAGCCGGAUUCCCCCGACAGUCUGAUUGUGCUCAUCCUGCAAACCGAAGAGAAGCUGGCAGAGAGAAGAGCUAUGCUCAGGCUGCCCCCCGAGGCCCGCCCCCGCAACAGAGGAUUGAGCAUCA"}, "B12": {"name": "chr2:9584341:9584442:-|3pUTR|ENSG00000134308|msi1_unk|total|mutant (ssRNA)", "RNA": "GGGAGUUCUACAGUCCGACGAUCUUUCCAUGCAGAUUUGUGCACAUGUGAGAGGGUGUCCAGUUUGUCCCGUGAUUGUUAUUCCGAGAGUUGGACCACUAUUGUGUGUUGCUAAUCAUUGACUGCCGUCCCAAAAAAGCCUUGCAACAGAGGAUUGAGCAUCA"}, "B13": {"name": "chr11:78173774:78174554:-|CDS|ENSG00000188997|control|control|control (ssRNA)", "RNA": "GGGAGUUCUACAGUCCGACGAUCCGGGGGGAAGCUCUAUACAACCUCACUGGCGACCCUGACCAGCUUCCCUGACUCCAUGCUAGGCGCCAUGUUCAGCGGGAAGAUGCCCACCAAGAGGGACAGCCAGGGCAACUGCUUCAUCAACAGAGGAUUGAGCAUCA"}, "B14": {"name": "chr10:33178043:33178144:-|3pUTR|ENSG00000099250|msi1|total|mutant (ssRNA)", "RNA": "GGGAGUUCUACAGUCCGACGAUCAAAUUGGAUUGAGAAUGCCUUUUGUUUCCAGGAAAAUAUUGAUCACCAUGAAAGAAGAACCGUUUUUUGUCCCCAGAGACAUUCAUUCCGUUGAUAUAAUCCUACCAGAAGGAAAGCACUCAACAGAGGAUUGAGCAUCA"}, "B15": {"name": "ENSG00000070961:be:win_4101|3pUTR|ENSG00000070961|bound_else_gene|NA|bound_elsewhere_windowed (ssRNA)", "RNA": "GGGAGUUCUACAGUCCGACGAUCUACAGAUCUGUUUACAAGGUUUGUAGAUACUUUUUUUGUUCCUGUUCAUAGAUGGGAAGCUUCCUUAUAACUGAUGCAGAGAAAAAUUAGUCCUUCAAAUACUGCUGUAUUUUCAGGAAACAACAGAGGAUUGAGCAUCA"}, "B16": {"name": "ENSG00000198589:be:win_6101|CDS|ENSG00000198589|bound_else_gene|NA|bound_elsewhere_windowed (ssRNA)", "RNA": "GGGAGUUCUACAGUCCGACGAUCUAGGAAAUCAGAACUCAGAAAACGAGAUCCUCCUGGAAGGCGAUGAUGAUACUCUGUCAUCCGUGGAUGAGAAAGAUUUAGAGAAUCUUGCCGGUCCUGUUAGCCUGAGCACACCAGCUCCAACAGAGGAUUGAGCAUCA"}, "B17": {"name": "chr2:210678210:210678332:+|3pUTR|ENSG00000021826|unk|total|mutant (ssRNA)", "RNA": "GGGAGUUCUACAGUCCGACGAUCUUCAUCCAUUUACUAAUACUGUAUUUUUGGUGGACCCGGCUUGCCUAUGUGCUUAUGUGCCGCUUUUUACUUUUUAUGGUGCUGAUUAAUGGUGAUCAAGGCCGGAAAAGUUGCUGUUCUCAACAGAGGAUUGAGCAUCA"}, "B18": {"name": "chr9:116187394:116187495:+|CDS|ENSG00000182752|msi1|total|mutant (ssRNA)", "RNA": "GGGAGUUCUACAGUCCGACGAUCUGGGGAACAAGUGGGUGGCAUAUUCAGCCCACUGACCCAGAAGUGCAAAGUGCUCAUGUCCGGGGGCAGUGCCCUGAAUCACAACUACCGGGGCUACAUCGAGCACUUCAGUCUGUGGAACAACAGAGGAUUGAGCAUCA"}, "B19": {"name": "chr6:4943581:4943691:+|CDS|ENSG00000153046|unk|FALSE|bound_elsewhere (ssRNA)", "RNA": "GGGAGUUCUACAGUCCGACGAUCUACUUUCAUUCAAUUUAAGAAGCCCAUUAUUGUAGCAGUCAAUGGCCCAGCCAUUGGUCUAGGAGCAUCUAUAUUGCCUCUUUGCGAUGUGGUUUGGGCUAAUGAAAAGGCUUGGUUUCACAACAGAGGAUUGAGCAUCA"}, "B20": {"name": "ENSG00000070961:be:win_2401|CDS|ENSG00000070961|bound_else_gene|NA|bound_elsewhere_windowed (ssRNA)", "RNA": "GGGAGUUCUACAGUCCGACGAUCGAUGGCCCAGCACUAAAGAAAGCAGAUGUUGGAUUUGCAAUGGGUAUUGCUGGAACUGAUGUAGCUAAAGAAGCAUCCGAUAUUAUUCUCACAGAUGACAACUUUACAAGCAUUGUUAAACAACAGAGGAUUGAGCAUCA"}, "B21": {"name": "chr10:87753454:87753555:-|3pUTR|ENSG00000138138|msi1|total|mutant (ssRNA)", "RNA": "GGGAGUUCUACAGUCCGACGAUCCGUUUAAUGUGAAUUAUAUGUGAAUUUUUUUCAAAAUUUUACUAACCAGAAUUCUGUUACCGGCACCUAACCACGCAGCAUGAGGAAAACGGCACAACACAAUCUUGAGGUGCCUUCUGACAACAGAGGAUUGAGCAUCA"}, "B22": {"name": "chr1:169124931:169125019:+|5pUTR_CDS|ENSG00000143153|msi1_unk|FALSE|overlapping (ssRNA)", "RNA": "GGGAGUUCUACAGUCCGACGAUCGAAAUUUCCUUUCGUCCUAAUGAUCCCAAGAGCUAUGAGGCAUAUGUACUGAACAUAGUUAGGUUCCUGGAAAAGUACAAAGAUUCAGCCCAGAGGGAUGACAUGAUUUUUGAAGAUUGUCAACAGAGGAUUGAGCAUCA"}}, "note": "The other results are listed elsewhere or left out."}
{"target": "MSI1 full-length (mouse, UniProt Q61474 1-362)", "sequence (Q61474 whole entry)": "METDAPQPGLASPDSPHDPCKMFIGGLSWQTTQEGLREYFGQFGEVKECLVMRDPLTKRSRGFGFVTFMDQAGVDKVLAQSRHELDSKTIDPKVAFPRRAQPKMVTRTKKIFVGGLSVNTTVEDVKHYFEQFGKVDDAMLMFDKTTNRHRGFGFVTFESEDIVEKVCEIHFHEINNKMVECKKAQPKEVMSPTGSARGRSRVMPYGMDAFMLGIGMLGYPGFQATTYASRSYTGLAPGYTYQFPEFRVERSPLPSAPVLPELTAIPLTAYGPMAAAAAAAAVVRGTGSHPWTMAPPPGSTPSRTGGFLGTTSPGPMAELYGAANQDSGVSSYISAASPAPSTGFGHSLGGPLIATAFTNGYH", "assay": "nsRBNS (natural sequence RNA bind-n-seq); RBNS binding buffer (assumed for nsRBNS): 25 mM Tris pH 7.5, 150 mM KCl, 3 mM MgCl2, 0.01% Triton X-100, 500 ug/ml BSA, 20 U/ml SUPERase-In, 4 C; UNK is unkempt and MSI1 is Musashi-1; names of the RNAs are library labels; protein concentration not given here; high values mean tight binding", "units": {"binding signal": "enrichment R"}}
{"binder": "B1", "binding signal": 0.633}
{"binder": "B2", "binding signal": 0.592}
{"binder": "B3", "binding signal": 0.673}
{"binder": "B4", "binding signal": 1.41}
{"binder": "B5", "binding signal": 0.375}
{"binder": "B6", "binding signal": 0.742}
{"binder": "B7", "binding signal": 0.75}
{"binder": "B8", "binding signal": 0.317}
{"binder": "B9", "binding signal": 0.537}
{"binder": "B10", "binding signal": 0.443}
{"binder": "B11", "binding signal": 0.436}
{"binder": "B12", "binding signal": 0.322}
{"binder": "B13", "binding signal": 0.459}
{"binder": "B14", "binding signal": 0.284}
{"binder": "B15", "binding signal": 0.545}
{"binder": "B16", "binding signal": 0.402}
{"binder": "B17", "binding signal": 0.246}
{"binder": "B18", "binding signal": 0.369}
{"binder": "B19", "binding signal": 0.445}
{"binder": "B20", "binding signal": 0.431}
{"binder": "B21", "binding signal": 0.455}
{"binder": "B22", "binding signal": 2.6}
